Consider 87 compounds from publication PMC4336329 (PLoS ONE, 2015).

Out of some 310,000 compounds screened, about 14,000 (4.5%) showed an effect of 50% or more. The effect is printed as a negative number. Some of the results follow.
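Note: peak tail current of the secondary pulse compared with the same well before compound.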

For the test, the target named is human ether-à-go-go-related gene (hERG) potassium channel (human, UniProt Q12809). Nature of the test: primary screen, population patch clamp on CHO cells stably expressing hERG.
human ether-à-go-go-related gene (hERG) potassium channel, sequence (Q12809 whole entry, looked up): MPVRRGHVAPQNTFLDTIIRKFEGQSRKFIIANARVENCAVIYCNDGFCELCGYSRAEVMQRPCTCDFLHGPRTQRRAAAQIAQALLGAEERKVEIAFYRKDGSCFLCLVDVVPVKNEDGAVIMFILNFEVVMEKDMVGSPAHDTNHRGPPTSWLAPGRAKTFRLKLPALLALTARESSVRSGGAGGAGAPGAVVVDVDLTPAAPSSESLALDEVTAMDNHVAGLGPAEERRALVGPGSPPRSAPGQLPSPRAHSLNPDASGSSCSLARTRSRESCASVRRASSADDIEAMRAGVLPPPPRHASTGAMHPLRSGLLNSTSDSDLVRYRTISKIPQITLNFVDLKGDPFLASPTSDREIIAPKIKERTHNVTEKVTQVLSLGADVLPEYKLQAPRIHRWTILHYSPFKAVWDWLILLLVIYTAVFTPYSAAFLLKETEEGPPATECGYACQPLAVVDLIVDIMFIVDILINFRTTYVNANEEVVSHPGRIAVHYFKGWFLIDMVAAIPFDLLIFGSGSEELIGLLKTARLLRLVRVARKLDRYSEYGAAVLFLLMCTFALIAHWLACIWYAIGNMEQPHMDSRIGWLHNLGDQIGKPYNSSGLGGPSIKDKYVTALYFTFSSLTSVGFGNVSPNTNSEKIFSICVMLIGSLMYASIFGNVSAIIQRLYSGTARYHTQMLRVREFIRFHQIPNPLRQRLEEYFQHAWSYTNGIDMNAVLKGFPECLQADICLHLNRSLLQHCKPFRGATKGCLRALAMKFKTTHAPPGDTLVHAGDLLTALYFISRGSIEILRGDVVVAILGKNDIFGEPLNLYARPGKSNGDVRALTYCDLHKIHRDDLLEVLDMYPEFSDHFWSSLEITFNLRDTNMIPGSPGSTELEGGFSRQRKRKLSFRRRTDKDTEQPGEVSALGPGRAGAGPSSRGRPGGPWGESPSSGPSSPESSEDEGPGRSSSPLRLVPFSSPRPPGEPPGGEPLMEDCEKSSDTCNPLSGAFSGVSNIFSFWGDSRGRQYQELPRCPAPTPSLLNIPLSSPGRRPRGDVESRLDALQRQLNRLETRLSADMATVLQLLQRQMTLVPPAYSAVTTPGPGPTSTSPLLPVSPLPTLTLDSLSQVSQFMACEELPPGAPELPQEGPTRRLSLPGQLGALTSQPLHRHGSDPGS
On to `Cn1cnnc1SC(C(=O)c1ccccc1)c1ccccc1` (stereo not drawn), for which the “hERG current change (%, negative = inhibition) at 10uM” value is reported as -1.57%.
Take `CCSc1nnc(NC(=O)c2nc(-c3ccccc3)n(-c3ccccc3)n2)s1`: the “hERG current change (%, negative = inhibition) at 10uM” value was -40%.
Next, `Cc1ccc(CNC(=O)CSc2ncc(C(=O)Nc3ccccc3)c(=O)n2C)cc1`: -14.5%; `Oc1ccccc1/C=C/c1noc(-c2ccccc2O)n1`: 29.1%.
Regarding `O=C(Nc1ccc(-n2nncc2-c2ccco2)cc1)c1cc2ccccc2oc1=O`, the “hERG current change (%, negative = inhibition) at 10uM” value is on record as 9.1%.
As for `O=C(C1CC(=O)N(C2CCCCCCC2)C1)N1CCC2(CC1)OCCO2` (stereo not drawn), the figure is -22.8%.
For `COc1cc(-c2c(NC(=O)c3ccco3)oc3c(C)cccc3c2=O)cc(OC)c1OC`, the “hERG current change (%, negative = inhibition) at 10uM” value is listed as 22.6%.
As for `c1ccc(-c2cc3c(-n4cccc4)ncnc3o2)cc1`, the “hERG current change (%, negative = inhibition) at 10uM” value came out at 0.799%.
Consider `CCOC(=O)N1CCN(S(=O)(=O)c2ccc(OC)c(Cl)c2)CC1`, for which the “hERG current change (%, negative = inhibition) at 10uM” value is listed as -1.37%.
As for `Cc1ccc(CNc2ccc([N+](=O)[O-])cc2C(N)=O)cc1`, the “hERG current change (%, negative = inhibition) at 10uM” value is 3.67%.
Next, `COc1ccc(CCNC(=O)c2cc(CC(C)C)on2)cc1OC`: -35.3%.
Consider `CN(Cc1cnc2nc(N)nc(N)c2n1)c1ccc(C(=O)N[C@@H](CCC(=O)O)C(=O)O)cc1`, for which the “hERG current change (%, negative = inhibition) at 10uM” value is reported as 14.5%.
On to `COc1ccc2c(c1)C(C)=CC(C)(C)N2C(=O)CSc1nnc(-c2ccc(C)cc2)o1`, for which the “hERG current change (%, negative = inhibition) at 10uM” value is reported as 4.8%.
As for `COc1ccccc1CCN=C(N)NS(=O)(=O)c1ccc(F)cc1`, the figure is -7.93%.
Next, `COc1cc(-c2cn[nH]c2N)cc(OC)c1OC`: 7.12%.
As for `Cc1ccc(-c2nc(CS(=O)CC(=O)NCCN3CCCCC3C)c(C)o2)cc1` (stereo not drawn), the figure is -9.54%.
For the compound `COc1ccc(NS(=O)(=O)c2cccc(C(=O)N3CCC3)c2)cc1`, the “hERG current change (%, negative = inhibition) at 10uM” value stood at 10.5%.
As for `CCC1(C)Cc2c(sc(NC(=S)NC(=O)c3ccccc3)c2C#N)CO1` (stereo not drawn), the “hERG current change (%, negative = inhibition) at 10uM” value turned out to be 18.1%.
On to `CN1CCc2nc(SCc3cccc(Br)c3)c(C#N)cc2C1`, for which the “hERG current change (%, negative = inhibition) at 10uM” value was -11.7%.
On to `COc1ccccc1/C=C/C(=O)OCC(=O)c1c[nH]c2ccccc12`, for which the “hERG current change (%, negative = inhibition) at 10uM” value stood at 3.53%.
For `O=C(NCc1cccnc1)c1ccccc1NS(=O)(=O)c1ccc(F)cc1F`, the “hERG current change (%, negative = inhibition) at 10uM” value amounted to 9.6%.
Next, `N#Cc1ccc(OCc2nnc(SCC(=O)c3ccccc3)n2-c2ccccc2)cc1`: -40.8%; `C/C(=N\NC(=O)c1c(Br)c(C)nn1C)c1cccc(NC(=O)c2ccccc2C)c1`: -4.71%; `S=c1[nH]nc(-c2ccco2)n1/N=C/C=C/c1ccco1`: 13.7%.
As for `CCNS(=O)(=O)c1ccc(NC(=O)Cn2cc([N+](=O)[O-])cn2)cc1`, the figure is 13.1%; as for `COc1ccc(CN2C(=O)CS/C2=N/N=C/c2cccs2)cc1`, 14.2%; as for `COc1ccc(Br)cc1CNC(=O)C1CCCN(S(C)(=O)=O)C1` (stereo not drawn), -12.3%.
As for `O=S(=O)(c1cccc(-c2cn3ccccc3n2)c1)N1CCCC1`, the figure is -14.7%.
`CN(C)C1=NC(=O)/C(=C\c2ccccc2)S1`: the “hERG current change (%, negative = inhibition) at 10uM” value is 2.8%.
As for `Cc1nn(C)cc1/C=N/n1nnnc1N`, the figure is -6.21%; as for `COC(=O)c1ccc(CSc2nc3ccccc3c(=O)n2C)o1`, 4.09%.
As for `N#Cc1nc(-c2cccc3ccccc23)oc1NCCN1CCOCC1`, the figure is -20.9%; as for `O=C(C[n+]1ccccc1)c1ccc(Cl)cc1.[I-]`, 10%.
Consider `O=C(N/N=C/c1ccccc1C(=O)O)c1cccc(S(=O)(=O)N2CCCCC2)c1`, for which the “hERG current change (%, negative = inhibition) at 10uM” value turned out to be 9.04%.
Next, `CC1(C)CC(NC(=O)C(c2ccccc2)c2ccccc2)CC(C)(C)N1`: 15.9%; `CCOc1ccccc1N1CN(CC)CNC1=S`: 6.67%; `CC1CCN(CCCNC(=O)C2CC(=O)N(C3CCCCCC3)C2)CC1` (stereo not drawn): 20.3%.
As for `Cc1cc(OCc2cc(C(=O)N3CCN(CC4CC4)CC3)no2)cc(C)c1Cl`, the figure is -33.3%; as for `O=C(COC(=O)CNC(=O)c1ccc(Cl)c([N+](=O)[O-])c1)NC(=O)CN1CCCC1=O`, -3.03%; as for `CN(C)CCCN(C(=O)c1ccc2c(c1)CCCC2)c1nc2ccc(Cl)cc2s1.Cl`, -43.8%.
As for `CCC(=O)Nc1ccc(SC#N)cc1C`, the figure is 12.9%; as for `O=C(O)CCC(=O)Nc1sc2c(c1C(=O)Nc1cccc3ccccc13)CCCCC2`, 8.26%; as for `C=CCOC(=O)CCC(=O)Nc1cccc2ccccc12`, -7.64%.
As for `Cc1cc(=O)[nH]c(N/N=C/c2c(F)c(F)c(F)c(F)c2F)n1`, the “hERG current change (%, negative = inhibition) at 10uM” value is reported as -2.37%.
As to `Cc1nc(C)n(CC(=O)N2CCCC(C(=O)c3cccc4ccccc34)C2)n1` (stereo not drawn), the “hERG current change (%, negative = inhibition) at 10uM” value turned out to be 6.92%.
Take `CCOc1ccc(CN(CC)C(=O)c2ccc3c(c2)[nH]c(=O)c(=O)n3CC)cc1OC`: the “hERG current change (%, negative = inhibition) at 10uM” value was -4.7%.
As for `CC(C)(O)C(=O)NNC(=S)Nc1ccc(F)c(Cl)c1`, the figure is 30.1%.
In the case of `COc1ccc(-c2cn3cc(C)ccc3n2)cc1F`, the “hERG current change (%, negative = inhibition) at 10uM” value was determined as 11.3%.
Next, `CSc1cccc(NC(=O)CCCOc2ccc(Cl)cc2Cl)c1`: 16.4%; `Cc1cccc(CN(CC(=O)N/N=C/c2ccco2)S(=O)(=O)c2ccc(Cl)cc2)c1`: -5.48%.
As for `COc1cccc(C(=O)NCC2CCCN2S(=O)(=O)c2ccccc2)c1` (stereo not drawn), the figure is 2.72%; as for `O=C(C[n+]1ccn(-c2ccccc2)c1)c1ccc([N+](=O)[O-])cc1.[Br-]`, -61.3%; as for `CCN(CC)S(=O)(=O)c1cccc(C(=O)OCC(=O)NC(C)c2ccccc2)c1` (stereo not drawn), -21.7%.
For `COc1cccc(S(=O)(=O)Nc2ccc(C(=O)N3CCOCC3)cc2)c1`, the “hERG current change (%, negative = inhibition) at 10uM” value was -4.12%.
For `Cc1ccc(C(=O)NNC(=O)c2cc(C)nc3ccccc23)cc1`, the “hERG current change (%, negative = inhibition) at 10uM” value was -6.48%.
As for `CC(=O)C1=NOC2C(=O)N(c3ccccc3)C(=O)C12` (stereo not drawn), the figure is 13.2%; as for `N#Cc1ccc(CSc2nnc(-c3cccnc3)o2)cc1`, -26.8%; as for `O=C(Cc1cccs1)N1CCCC(c2nc3c(nnn3Cc3ccccc3Cl)c(=O)[nH]2)C1` (stereo not drawn), -29.6%.
On to `COc1ccc(NC(=O)CSc2nc(C3CC3)nc3ccccc23)c(OC)c1`, for which the “hERG current change (%, negative = inhibition) at 10uM” value amounted to 4.94%.
Next, `Cc1ccc2sc(N3CCN(CCNC(=O)c4ccco4)CC3)nc2c1C.Cl`: -58.2%; `COc1ccc(C(C)(C)C)cc1NC(=O)COC(=O)c1ncc(Cl)c(Cl)c1Cl`: 10.2%; `COc1cc(NC(=O)CN2C(=O)NC(C)(CCC(C)C)C2=O)cc(OC)c1` (stereo not drawn): -0.743%.
As for `CCCCCCn1c(O)c(/C=C2\C=NN=C2c2ccccc2)sc1=S`, the figure is 2.67%; as for `C(/C=C/c1ccccn1)=C\c1ccccc1`, -5%.
As to `Cc1ccc(-c2nc3ccc(Cl)cc3n2OC(C)C(=O)O)cc1` (stereo not drawn), the “hERG current change (%, negative = inhibition) at 10uM” value was 12.1%.
As for `O=C(CNC(=O)C1(c2ccccc2)CC1)Nc1ccc(F)c(F)c1`, the figure is 11.3%.
Next, `CC1CCN(C(=O)CSc2nnc(-c3ccncc3)n2C)CC1`: 6.41%.
As for `O=[N+]([O-])c1ccc(Oc2ccc(/C=N/O)cc2)nc1`, the figure is 0.3%.
As for `CCOc1ccc(NC(=O)COC(=O)c2ccc3c(c2)C(=O)N(CCc2ccccc2)C3=O)cc1`, the “hERG current change (%, negative = inhibition) at 10uM” value is 9.69%.
As for `CN1C(=O)CC(N2CCN(CCN=CC3=C(O)CC(C)(C)CC3=O)CC2)C1=O` (stereo not drawn), the figure is 13.1%; as for `COc1ccc(C(=O)Nc2ccccc2C(=O)NC(Cc2ccc(O)cc2)C(=O)NNC(=O)c2ccccc2)cc1` (stereo not drawn), 9.95%; as for `C#CCN(C)CCCOc1ccc(Cl)cc1Cl.Cl`, -21%.
In the case of `CCC(=NC1CC1)c1c(O)n(-c2ccc(OC)cc2)c(=O)[nH]c1=O`, the “hERG current change (%, negative = inhibition) at 10uM” value is given as 18.6%.
In the case of `O=C(NCc1ccc(F)cc1)C(=O)NCC1CCCN1S(=O)(=O)c1ccccc1` (stereo not drawn), the “hERG current change (%, negative = inhibition) at 10uM” value was -38.2%.
Turning to `CC(C)C(=O)N(Cc1ccc(F)cc1)Cc1nc2ccccc2c(=O)[nH]1`, the “hERG current change (%, negative = inhibition) at 10uM” value is given as -30.4%.
Next, `COc1ccc2c(c1)c(=O)c(C(=O)O)c(-c1ccc3c(c1)OCO3)n2C`: -27.4%; `Br.CCCCC(CCC(=O)O)(C(=O)OCC)c1csc(Nc2ccc(OCC)cc2)n1` (stereo not drawn): 6.54%; `CCOc1ccc(CCNC(=O)COC(=O)c2c(OC)cccc2OC)cc1OCC`: -8.62%.
As for `CC(=O)c1ccc(NC(=S)NCc2cccnc2)cc1`, the figure is -1.93%; as for `CN(C)C(=O)c1cn(-c2ccc(Cl)cc2)c(=O)c2ccccc12`, -10.9%.
As for `O=C(Nc1ccc(F)cc1F)c1csc(-c2cccs2)n1`, the “hERG current change (%, negative = inhibition) at 10uM” value was 27.4%.
As to `O=C(CSc1nnnn1-c1cccnc1)Nc1ccc(OCc2ccccc2)cc1`, the “hERG current change (%, negative = inhibition) at 10uM” value is given as -7.38%.
Regarding `Cc1cccc(C)c1-n1c(SCC(=O)NCc2ccco2)nc2ccccc2c1=O`, the “hERG current change (%, negative = inhibition) at 10uM” value was -28.7%.
Next, `COc1ccc(C2C(C(C)=O)=C(C)Nc3ncnn32)cc1` (stereo not drawn): 18.4%.
For `Cc1cc(C)cc(Oc2nc(C(F)(F)F)nc3ccccc23)c1`, the “hERG current change (%, negative = inhibition) at 10uM” value amounted to 17.6%.
As for `CCOc1ccc(CC(=O)N2CCN(c3ccc(N4CCOCC4)nn3)CC2)cc1OCC`, the figure is 8.69%.
Next, `Cc1cc(NC(=O)C2=C(O)c3ccccc3S(=O)(=O)N2C)no1`: 6.5%.
